# Hit rate of the full screen: of about 310,000 compounds, about 14,000 (4.5%) showed an effect of 50% or more. The effect is printed as a negative number. The list shows a part of the results.
# Target: human ether-à-go-go-related gene (hERG) potassium channel (human, UniProt Q12809)
# Assay: primary screen, population patch clamp on CHO cells stably expressing hERG
# 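Further: peak tail current of the secondary pulse compared with the same well before compound.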
# Chain of human ether-à-go-go-related gene (hERG) potassium channel (Q12809 whole entry, looked up): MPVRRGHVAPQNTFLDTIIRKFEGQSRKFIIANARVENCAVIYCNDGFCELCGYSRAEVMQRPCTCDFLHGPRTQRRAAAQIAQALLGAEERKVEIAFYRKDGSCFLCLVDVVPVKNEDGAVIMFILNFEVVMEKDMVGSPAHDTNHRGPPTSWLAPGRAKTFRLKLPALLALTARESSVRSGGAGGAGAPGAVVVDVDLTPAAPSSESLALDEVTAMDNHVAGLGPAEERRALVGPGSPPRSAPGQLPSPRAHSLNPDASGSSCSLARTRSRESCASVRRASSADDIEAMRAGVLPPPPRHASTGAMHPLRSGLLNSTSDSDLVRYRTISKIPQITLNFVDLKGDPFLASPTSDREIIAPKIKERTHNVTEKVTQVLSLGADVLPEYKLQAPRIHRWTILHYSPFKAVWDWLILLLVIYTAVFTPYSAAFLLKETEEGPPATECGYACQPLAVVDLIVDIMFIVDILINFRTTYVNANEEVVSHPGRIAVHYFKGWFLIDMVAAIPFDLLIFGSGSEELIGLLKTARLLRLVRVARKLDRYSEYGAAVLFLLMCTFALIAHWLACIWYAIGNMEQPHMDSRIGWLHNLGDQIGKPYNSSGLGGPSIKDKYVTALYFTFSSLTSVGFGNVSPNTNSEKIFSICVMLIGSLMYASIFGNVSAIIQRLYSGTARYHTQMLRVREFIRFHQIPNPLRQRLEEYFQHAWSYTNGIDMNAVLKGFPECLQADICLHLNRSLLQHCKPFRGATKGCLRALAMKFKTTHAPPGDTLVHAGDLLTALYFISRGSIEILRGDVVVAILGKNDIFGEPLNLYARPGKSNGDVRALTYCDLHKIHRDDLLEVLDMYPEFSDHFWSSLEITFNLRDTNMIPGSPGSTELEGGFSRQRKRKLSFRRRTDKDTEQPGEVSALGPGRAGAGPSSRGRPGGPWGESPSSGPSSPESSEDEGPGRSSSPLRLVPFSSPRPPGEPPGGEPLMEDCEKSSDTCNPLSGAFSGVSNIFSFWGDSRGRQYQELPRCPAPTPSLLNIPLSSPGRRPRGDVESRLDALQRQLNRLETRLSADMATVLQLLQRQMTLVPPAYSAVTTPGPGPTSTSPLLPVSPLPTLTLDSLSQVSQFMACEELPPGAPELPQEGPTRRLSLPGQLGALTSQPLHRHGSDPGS
row,Structure (SMILES),"hERG current change (%, negative = inhibition) at 10uM"
1,CN1CCc2cc3c(c4c2C1CC41CCC(=NO)CC1)OCO3 (centres unmarked),-7.57%
2,CCCCc1nc(SCC(=O)Nc2cc(C)on2)n[nH]1,25.1%
3,CCN(CC)S(=O)(=O)c1cccc(NN=c2c(=O)c3ccccc3c2=O)c1,13.8%
4,CCOc1ccc(N(C(=O)Nc2ccccc2)C2=NCCC2)cc1,-3.82%
5,COc1ccc2cnn(CCOc3ccccc3)c(=O)c2c1OC,-13.5%
6,Cc1ccc2[nH]cc(CCNC(=O)C3CCCCC3)c2c1,8.88%
7,O=C(CCCn1c(=O)[nH]c2cc(Cl)ccc2c1=O)NCCC1=CCCCC1,10.9%
8,COc1ccc(-c2nc(SC(CC(=O)NCc3ccccc3)c3ccc(OC)c(OC)c3)n[nH]2)cc1 (centres unmarked),-0.421%
9,COCc1c(C(=O)N2CCN(c3ncccn3)CC2)oc2ccccc12,-7.68%
10,Cc1cccc(NC(=O)COc2ccccc2C(=O)NC(C)c2ccccc2)c1 (centres unmarked),-8.56%
11,COc1cc([N+](=O)[O-])cc(/C=N/NC(=O)c2cc(-c3ccccc3)nc3ccccc23)c1O,6.01%
12,COc1ccc(COc2cccc(C=O)c2)cc1,-6.86%
13,CN(C(=O)c1coc(=O)c2ccccc12)c1ccc(F)cc1,4.81%
14,O=[N+]([O-])c1ccc(NC2CCN(Cc3ccccc3)CC2)c2ccncc12,6.01%
15,COc1ccc(NC(=O)N2CCC3(CC2)OCCO3)c(OC)c1,7.69%
16,Cc1ccc(C2C=C(c3ccc4c(c3)OCO4)Nc3ncnn32)cc1 (centres unmarked),-12%
17,Cc1ccc(S(=O)(=O)N2CCN(C(=O)c3cccc(F)c3)CC2)cc1,-9.7%
18,NS(=O)(=O)c1ccc(CCNC(=O)CSc2nc3ccccc3c(=O)n2CCN2CCOCC2)cc1,41.4%
19,Cc1c(C)c2ccc(OC(C)C(=O)N3CC[C@@]4(O)CCCC[C@H]4C3)cc2oc1=O (some centres unmarked),-11.2%
20,CCS(=O)(=O)N1CCCC(C(=O)NCc2cccnc2)C1 (centres unmarked),1.43%
21,[O-]/[N+](=C/c1ccco1)c1ccccc1,15.2%
22,COc1ccccc1N1CCN(C2CC(=O)N(c3ccccc3)C2=O)CC1 (centres unmarked),24.1%
23,O=C(Nc1nnc(SCc2cccnc2)s1)C1CC(=O)N(c2ccc(F)cc2)C1 (centres unmarked),-1.85%

row,Structure (SMILES),"hERG current change (%, negative = inhibition) at 10uM"
1,COc1ccc(OCC(O)CNC(=O)Nc2ccccc2)cc1 (centres unmarked),17.5%
2,CCOc1ccccc1C(=O)N/N=C/c1ccoc1,8.57%
3,CC(=O)NC1C(=O)N(CC(C)C)c2ccccc21 (centres unmarked),-1.75%
4,COc1ccc(OCC(=O)NNC(=O)c2c(-c3ccccc3Cl)noc2C)cc1,8.13%
5,Cc1cc2nc(C)n(CCCNC(=O)Nc3ccc(F)cc3)c2cc1C,-49.9%
6,CC(=O)Nc1ccc(NC(=O)CN2CCN(c3cccc(C(F)(F)F)c3)CC2)cc1,-12.1%
7,O=c1c([N+](=O)[O-])c[nH]c2ccccc12,19.4%
8,Cc1c(NC(=S)NC(=O)c2ccco2)cccc1-c1nc2ncccc2o1,13.3%
9,Cc1cc(Br)ccc1SCC(=O)OCC(=O)NC(C)c1ccccc1 (centres unmarked),-2.5%
10,COc1ccc(COCC(O)CN2CCC(C(N)=O)CC2)cc1 (centres unmarked),9.99%
11,O=P1(O)C=C(c2ccccc2)NC(c2ccccc2)=C1,1.46%
12,COCCNC(=O)c1n[nH]c2ccccc12,18.1%
13,Cl.O=C(CCN1CCCCCC1)c1ccccc1,-21.1%
14,Cc1cc(Nc2ccccc2N2CCOCC2)n2ncnc2n1,-17.2%
15,CCOC(=O)C1(Cc2cccc(OC)c2)CCCN(C(=O)CCN2CCCO2)C1 (centres unmarked),2.24%
16,Cc1ccccc1NC(=O)NCCc1ccc(Cl)cc1,6.29%
17,CC(=O)c1cc(C(=O)NC2CCCc3c2cnn3-c2cc(C)cc(C)c2)[nH]n1 (centres unmarked),-23%
18,Cc1ccc(/C(N)=N/OC(=O)c2ccc(F)cc2)cc1,17%
19,COc1ccc(CNC(=O)c2ccc3c(c2)N(C)CCS3)cc1,-2.44%
20,CCCCN(C(=O)c1cccc(-n2cccc2)c1)c1c(N)n(Cc2ccccc2)c(=O)[nH]c1=O,-17.8%
21,O=[N+]([O-])c1ccc(N=Nc2ccc(O)cc2O)cc1,28.4%
22,COc1ccccc1N1CCN(C(=O)C(OC(C)=O)c2ccccc2)CC1 (centres unmarked),8.68%
23,COc1ccc(-c2nc(NC(=O)c3ccc(OCC(=O)N4CCOCC4)c(OC)c3)sc2C)cc1,2.47%

row,Structure (SMILES),"hERG current change (%, negative = inhibition) at 10uM"
1,Cc1nn(CC(=O)NCCCN2CCOCC2)c(C)c1[N+](=O)[O-],-27.8%
2,CCn1c(=O)c2cc(C(=O)N(C)CC(OC)OC)sc2c2ccccc21,0.282%
3,CNS(=O)(=O)c1cc(C(=O)O)ccc1OC,17.5%
4,Cc1ccc(N2C(=O)N3[C@H](c4ccc(Cl)cc4)[C@@H]4C(=O)N(C5CCCCC5)C(=O)[C@@H]4[C@]3(Cc3ccccc3)C2=O)cc1,13.9%
5,CCCCC(=O)NC(c1ccccc1Cl)c1ccc2cccnc2c1O (centres unmarked),15.2%
6,O=C(CN1CCN(c2ccccc2O)CC1)Nc1cc(S(=O)(=O)N2CCCC2)ccc1Cl,-38.3%
7,Cc1ccc(-n2nc3c(=O)n(C(C)C(=O)NCc4ccco4)nc(C)c3c2C)cc1 (centres unmarked),-41.3%
8,Cn1cc(S(=O)(=O)Nc2ccc(Cl)cc2Cl)c(=O)n(C)c1=O,1.76%
9,COc1ccc(CNS(=O)(=O)c2ccc(-c3cnc(C4CC4)o3)cc2)cc1,2.88%
10,COc1ccc(NCc2nnc(SCC(=O)Nc3ccc(OC)cc3OC)o2)cc1,-9.35%
11,O=C(c1cc(COc2ccc(F)cc2Cl)on1)N1CCN(C2CCCCC2)C(=O)C1,-67.9%
12,O=c1[nH]c(=O)n(Cc2ccco2)c(O)c1/C=N/N1CCCCCC1,-12.3%
13,O=C(c1cnn(C(=O)CN2CCCC2=O)c1)c1ccccc1O,1.85%
14,Cc1ccc2c(c1)/C(=C/c1ccccc1C)C(=O)N2,14.4%
15,O=C(COC(=O)c1cc(Cl)ccc1O)NCC1CCCO1 (centres unmarked),-1.37%
16,O=C(NC1CCCCC1)c1cc(-c2ccc(Cl)cc2)on1,2.02%
17,COc1ccc(S(=O)(=O)Nc2ccccc2C(=O)NC(C)(C)C)cc1OC,-0.848%
18,Cc1ccc(NC(=O)NC(=O)CSc2nnc(-c3ccc(OC(F)F)cc3)n2N)c(C)c1,3.52%
19,COCCN(C(=O)c1csnn1)C(C(=O)NC1CCCCC1)c1ccc(Cl)cc1 (centres unmarked),-6.8%
20,O=C(NCCCn1ccnc1)/C(=C\c1ccccc1F)NC(=O)c1ccccc1,-75%
21,Cc1ccsc1C(=O)Nc1ccc(OCc2ccccc2)cc1,15.7%
22,Cc1ccc(C(=O)OCC(=O)Nc2ccc(F)c(Cl)c2)o1,17%
23,O=C(NC(c1ccccc1)c1ccccc1)C1CCCO1 (centres unmarked),4.58%

row,Structure (SMILES),"hERG current change (%, negative = inhibition) at 10uM"
1,O=C(CCCN1C(=O)/C(=C\c2cccs2)SC1=S)Nc1ccc(O)cc1C(=O)O,2.24%
2,Cc1nn(-c2ccccc2)c(Cl)c1/C=N/NC(=O)CNc1n[nH]c(=O)[nH]c1=O,18.5%
3,CC(C)Cn1c(N)c(C(=O)COC(=O)C2=COCCO2)c(=O)n(C)c1=O,14.1%
4,CCN1CCN(CC(=O)N2CCCC(C(=O)c3ccc(Oc4ccccc4)cc3)C2)CC1 (centres unmarked),-52.7%
5,Nc1c(C(=O)Nc2ccc(Cl)cc2)sc2nc(N3CCOCC3)c3c(c12)CCCC3,15.7%
6,Cc1cccc(N2CCN(c3nc(C)cc(C)c3C#N)CC2C)c1.Cl (centres unmarked),14.2%
7,Cc1cc(C)c(/C=N/n2c(C)cc(C)c(C#N)c2=O)c(C)c1,8.14%
8,O=C(Nc1ccc(F)cc1)Nc1nnc(-c2ccco2)s1,30.4%
9,O=[N+]([O-])c1ccc(O)c(P(=O)(c2ccccc2)c2ccccc2)c1,16.2%
10,Cc1ccc(C(=O)N2CCC(C)CC2)cc1S(=O)(=O)N1CCCCC1,-10.2%
11,CSc1ccc(CCNC(=O)CN2C(=O)CCSc3ccccc32)cc1,3.31%
12,CCC(=O)c1ccc(OCCn2cncn2)cc1,-10.7%
13,COc1ccc2cc(C#N)c(SCC(=O)N3CCCC3)nc2c1,-17.9%
14,O=C(NN=C1CCCCC1)c1ccccc1OCc1ccc(F)cc1,8.52%
15,CCC(C)NC(=O)c1cc(OC)c(OC)c(OC)c1 (centres unmarked),6.51%
16,COc1cccc(C(=O)NC2CCN(CC(=O)NCc3ccccc3OC)CC2)c1,-10.7%
17,COC(=O)Nc1ccc(=O)n(Cc2c(Cl)cccc2Cl)c1,3.91%
18,O=C(NNS(=O)(=O)c1ccc2ccccc2c1)c1cccs1,-0.742%
19,CC1=C(C(=O)OCC2CCCO2)C(c2coc3ccc(Cl)cc3c2=O)C2=C(CCCC2=O)N1 (centres unmarked),-16.3%
20,CCCCOc1ccc(N2C(=O)CC(N(O)c3ccccc3)C2=O)cc1 (centres unmarked),11.8%

# From publication PMC4336329 (PLoS ONE, 2015)
